Data taken from the antibiotic and cytotoxicity screens of Wong et al. (2023).
The list shows a part of the results.

Columns and labels:
HSkMC = human skeletal muscle cells; experiment: cytotoxicity call (relative viability < 0.9); conditions: 10 µM
HepG2 = experiment: cytotoxicity call (relative viability < 0.9); conditions: 10 µM
S. aureus RN4220 = experiment: growth inhibition call (relative growth <= 0.2); conditions: 50 µM

SMILES	cytotoxicity call (HSkMC)	cytotoxicity call (HepG2)	growth inhibition call (S. aureus RN4220)
C[C@@H]1CCCCO[C@H](CN(C)S(=O)(=O)c2ccc(F)cc2)[C@H](C)CN([C@H](C)CO)C(=O)c2cc(NC(=O)NC3CCCCC3)ccc2O1	inactive	inactive	inactive
C[C@H](CO)N1C[C@H](C)[C@@H](CN(C)Cc2ccc(Oc3ccccc3)cc2)Oc2ccc(NC(=O)Nc3ccccc3)cc2CC1=O	inactive	inactive	inactive
C[C@@H]1CN([C@H](C)CO)S(=O)(=O)c2ccc(C#CC(C)(C)O)cc2O[C@@H]1CN(C)Cc1ccccc1	inactive	inactive	inactive
CCS(=O)(=O)N1C[C@]2(CCN(CC2)C(=O)Cc2ccccc2)c2c(n(c3cc(ccc23)OC)C)[C@H]1CO	inactive	inactive	inactive
C[C@H]1CN([C@@H](C)CO)C(=O)CCCn2nncc2CO[C@@H]1CN(C)C(=O)Nc1cccc(Oc2ccccn2)c1	inactive	inactive	inactive
COc1cccc(S(=O)(=O)N2C[C@H](O)COC[C@H]3O[C@H](CC(=O)N4CCOCC4)CC[C@@H]32)c1	inactive	inactive	inactive
CN1C(=O)[C@H]2[C@H](C1=O)[C@H]1C=C(c3ccc(CO)cc3)[C@@H]2[C@H](c2cccs2)N1Cc1cccc(OC(F)(F)F)c1	inactive	inactive	active
C[C@@H]1CCCCO[C@@H](CN(C)C(=O)Nc2ccccc2)[C@@H](C)CN([C@@H](C)CO)C(=O)c2cc(NC(=O)C3CCCCC3)ccc2O1	inactive	inactive	inactive
COc1ccc(S(=O)(=O)Nc2ccc3c(c2)C(=O)N([C@@H](C)CO)C[C@H](C)[C@H](CN(C)S(=O)(=O)c2cn(C)cn2)O3)cc1	inactive	inactive	inactive
COCC(=O)Nc1ccc2c(c1)OC[C@@H](C)N(Cc1cccc(F)c1)C[C@@H](C)[C@H](OC)CN(C)C2=O	inactive	inactive	inactive
COc1ccc2c3c(n(c2c1)C)[C@H](CO)N(C[C@]13CCN(CC1)C(=O)Nc1cccc(c1)F)S(=O)(=O)C	inactive	inactive	inactive
C[C@H](NC(=O)C[C@@H]1C=C[C@H](NC(=O)CN2CCOCC2)[C@H](CO)O1)c1ccccc1	inactive	inactive	inactive
COc1ccc(S(=O)(=O)Nc2ccc3c(c2)CC(=O)N([C@H](C)CO)C[C@H](C)[C@H](CN(C)Cc2ccc(C(=O)O)cc2)O3)cc1	inactive	inactive	inactive
Cc1ccc(S(=O)(=O)N(C)C[C@@H]2OCCCC[C@@H](C)Oc3ccc(NC(=O)Nc4ccccc4)cc3C(=O)N([C@@H](C)CO)C[C@@H]2C)cc1	inactive	inactive	inactive
O=C(C[C@H]1C[C@H]2c3cc(NC(=O)c4ccc5c(c4)OCO5)ccc3O[C@H]2[C@H](CO)O1)NCC(F)(F)F	inactive	inactive	inactive
C[C@@H]1CN([C@@H](C)CO)C(=O)c2cccc(NC(=O)C3CC3)c2O[C@H]1CN(C)S(=O)(=O)c1ccc(Cl)cc1	inactive	inactive	inactive
Cc1cc(C(=O)Nc2cccc3c2O[C@H](CN(C)C(=O)Nc2c(C)noc2C)[C@H](C)CN([C@H](C)CO)C3=O)n(C)n1	inactive	inactive	inactive
C[C@@H]1CN([C@@H](C)CO)C(=O)Cc2cc(NC(=O)Cc3cn(C)c4ccccc34)ccc2O[C@@H]1CN(C)C	inactive	inactive	inactive
O=S(=O)(Cc1ccccc1)Nn1cnnc1	inactive	inactive	inactive

SMILES	cytotoxicity call (HSkMC)	cytotoxicity call (HepG2)	growth inhibition call (S. aureus RN4220)
COc1ccc2c3c(n(c2c1)C)[C@@H](CO)N(C[C@]13CN(Cc2ccncc2)C1)C(=O)CN1CCOCC1	inactive	inactive	inactive
Cn1cc(S(=O)(=O)N2CCN(Cc3ccccc3)CC2)c(=O)n(C)c1=O	inactive	inactive	inactive
CCCn1c(=O)c(C)cn2nc(N)nc12	inactive	inactive	inactive
CNCC(O)C(O)C(O)C(O)CO (stereo unspecified)	inactive	inactive	inactive
Cc1ccc(-n2cnc3cc(NCc4cccs4)ccc32)cc1	inactive	inactive	inactive
COc1ccc(S(=O)(=O)Nc2ccc3c(c2)CC(=O)N([C@@H](C)CO)C[C@H](C)[C@H](CN(C)S(=O)(=O)c2ccccc2)O3)cc1	inactive	inactive	inactive
C[C@@H]1CCCCO[C@@H](CN(C)S(=O)(=O)c2ccc(Cl)cc2)[C@H](C)CN([C@H](C)CO)C(=O)c2cc(NS(=O)(=O)c3cccs3)ccc2O1	inactive	active	inactive
Cc1noc(C)c1NC(=O)N(C)C[C@H]1Oc2ccc(NC(=O)Cn3cnnn3)cc2CC(=O)N([C@@H](C)CO)C[C@@H]1C	inactive	inactive	inactive
COc1ccc(S(=O)(=O)Nc2ccc3c(c2)CC(=O)N([C@H](C)CO)C[C@H](C)[C@H](CN(C)Cc2ccncc2)O3)cc1	inactive	inactive	inactive
C[C@H](CO)N1C[C@H](C)[C@H](CN(C)Cc2ccc(C(=O)O)cc2)OCCCC[C@H](C)Oc2ccc(NS(=O)(=O)c3ccc(F)cc3)cc2C1=O	inactive	inactive	inactive
COCCNC(=O)[C@H]1[C@H](CO)[C@H]2Cn3c(ccc(-c4ccccc4F)c3=O)[C@@H]1N2S(C)(=O)=O	inactive	inactive	inactive
[O-][n+]1cccc(CO)c1	inactive	inactive	inactive
C[C@H]1CCCCO[C@H](CN(C)C(=O)Nc2ccccc2)[C@@H](C)CN([C@@H](C)CO)C(=O)c2cc(NS(=O)(=O)c3ccccc3)ccc2O1	inactive	inactive	inactive
C[C@H](CO)N1C[C@H](C)[C@@H](CN(C)S(=O)(=O)c2ccc(F)cc2)OCCCC[C@H](C)Oc2ccc(NS(=O)(=O)c3ccc(Cl)cc3)cc2C1=O	inactive	inactive	inactive
CC(C)NC(=O)N(C)C[C@H]1OCCCC[C@H](C)Oc2ccc(NS(=O)(=O)c3cn(C)cn3)cc2C(=O)N([C@@H](C)CO)C[C@@H]1C	inactive	inactive	inactive
c1ccc(C(c2c[nH]c3ccccc23)c2c[nH]c3ccccc23)nc1	inactive	inactive	inactive
Cc1noc(C)c1S(=O)(=O)Nc1ccc2c(c1)CC(=O)N([C@H](C)CO)C[C@@H](C)[C@H](CN(C)Cc1ccc3c(c1)OCO3)O2	inactive	inactive	inactive
C[C@H]1CN([C@@H](C)CO)S(=O)(=O)c2ccc(Br)cc2O[C@H]1CN(C)Cc1ccc(F)cc1	inactive	inactive	inactive
CC(C)NC(=O)Nc1ccc2c(c1)C(=O)N([C@@H](C)CO)C[C@@H](C)[C@H](CN(C)Cc1ccc(Cl)c(Cl)c1)OCCCC[C@@H](C)O2	inactive	inactive	inactive

SMILES	cytotoxicity call (HSkMC)	cytotoxicity call (HepG2)	growth inhibition call (S. aureus RN4220)
C[C@@H]1CN([C@@H](C)CO)C(=O)c2cc(NC(=O)Nc3ccccc3)ccc2O[C@@H]1CN(C)S(=O)(=O)c1cn(C)cn1	inactive	inactive	inactive
Cc1occc(=O)c1O	inactive	inactive	inactive
C[C@H]1CN([C@@H](C)CO)C(=O)c2cc(-c3cccc(C#N)c3)cnc2O[C@@H]1CN(C)C(=O)C1CCOCC1	inactive	inactive	inactive
C[C@@H]1CN([C@H](C)CO)C(=O)c2cccc(NC(=O)Nc3ccc(C(F)(F)F)cc3)c2O[C@H]1CN(C)C(=O)Nc1ccc2c(c1)OCO2	inactive	inactive	inactive
CC[C@@H](N)c1ccc(C)cn1	inactive	inactive	inactive
CCCCCCc1nc(-c2cc(C)c(OC)c(C)c2)cc2c1[Si](C(C)C)(C(C)C)O[C@H]2c1ccccc1	inactive	inactive	inactive
O=C(O)CN(CCN(CC(=O)O)CC(=O)O)CCN(CC(=O)O)CC(=O)O	inactive	inactive	inactive
CCN1CCN([C@H]2CC(=O)NC2=O)CC1	inactive	inactive	inactive
Cc1ccc(S(=O)(=O)Nc2cccc3c2O[C@H](CN(C)Cc2ccc(Oc4ccccc4)cc2)[C@H](C)CN([C@H](C)CO)C3=O)cc1	inactive	inactive	inactive
Nc1cccc2c1CN(C1CCC(=O)NC1=O)C2=O (stereo unspecified)	inactive	inactive	inactive
CC(=O)N1CCC[C@@H]1C(=O)O	inactive	inactive	inactive
Cc1ccc(S(=O)(=O)Nc2ccc3c(c2)C(=O)N([C@@H](C)CO)C[C@@H](C)[C@H](CN(C)Cc2ccc4c(c2)OCO4)OCCCC[C@@H](C)O3)cc1	inactive	inactive	inactive
O=C(C[C@H]1C[C@@H]2c3cc(NC(=O)c4ccc5c(c4)OCO5)ccc3O[C@@H]2[C@@H](CO)O1)NCc1ccccn1	inactive	inactive	inactive
COc1cccc(C#Cc2ccc3c(c2)O[C@H](CN(C)C(C)=O)[C@@H](C)CN([C@@H](C)CO)S3(=O)=O)c1	inactive	inactive	inactive
C[C@@H]1CN([C@H](C)CO)C(=O)c2cc(NC(=O)Nc3ccc(C(F)(F)F)cc3)ccc2O[C@@H](C)CCCCO[C@H]1CN(C)Cc1ccc(C(=O)O)cc1	inactive	inactive	inactive
COc1ccc(CN(C)C[C@H]2Oc3c(NC(=O)C4CCOCC4)cccc3C(=O)N([C@H](C)CO)C[C@@H]2C)cc1	inactive	inactive	inactive
C[C@H]1CN([C@@H](C)CO)C(=O)c2cccc(NS(C)(=O)=O)c2O[C@H]1CN(C)S(=O)(=O)c1ccc(F)cc1	inactive	inactive	inactive
C[C@H]1CN([C@@H](C)CO)S(=O)(=O)c2ccc(C#Cc3ccccc3F)cc2O[C@H]1CN(C)C(=O)Cc1cccnc1	inactive	inactive	inactive
C[C@H](O)C#Cc1cnc2c(c1)C(=O)N([C@@H](C)CO)C[C@@H](C)[C@@H](CN(C)Cc1cncnc1)O2	inactive	inactive	inactive
